In PubChem BioAssay AID1476 (National Center for Advancing Translational Sciences (NCATS), 2009):
Screen size: about 200,000 compounds; about 4,500 (2.2%) were called active. Inconclusive results, whose numbers are uncertain, are shown with a selection of clear calls. Calls come from the whole dose curve; as a rule, active = well fitted inhibition curve with a large enough effect; inconclusive = small, poorly fitted or top-dose-only effect, or effect the other way; inactive = flat fitted curve, though single readings scatter. A potency beside an inconclusive call is a rough fit, not a confirmed value.

molecular target: Cruzipain (Trypanosoma cruzi) (UniProt P25779); test: qHTS Assay for Promiscuous and Specific Inhibitors of Cruzain (without detergent); conditions: purified cruzain, Z-FR-AMC fluorescence, no detergent; note: nearly all actives have a fitted effect of over 40% in size;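 for max response, negative = inhibition: plate controls were enzyme without inhibitor for no effect and buffer without enzyme for full effect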
UniProt P25779, sequence (P25779 whole entry, looked up): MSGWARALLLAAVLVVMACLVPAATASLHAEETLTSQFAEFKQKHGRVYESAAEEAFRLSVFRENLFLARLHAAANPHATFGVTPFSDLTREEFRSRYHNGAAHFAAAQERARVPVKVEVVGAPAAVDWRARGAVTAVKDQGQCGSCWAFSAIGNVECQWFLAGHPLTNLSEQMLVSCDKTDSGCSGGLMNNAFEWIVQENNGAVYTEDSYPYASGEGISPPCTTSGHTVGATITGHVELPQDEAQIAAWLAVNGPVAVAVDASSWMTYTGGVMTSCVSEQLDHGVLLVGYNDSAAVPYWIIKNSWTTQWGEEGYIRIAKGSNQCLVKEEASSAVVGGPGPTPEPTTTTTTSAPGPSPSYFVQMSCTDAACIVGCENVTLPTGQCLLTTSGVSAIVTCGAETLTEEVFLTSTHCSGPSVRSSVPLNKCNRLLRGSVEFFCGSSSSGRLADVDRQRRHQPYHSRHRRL
How it was run: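 Purified cruzain at 1.5 nM, pre-incubated 15 min with compound at room temperature in 100 mM sodium acetate pH 5.5, 5 mM DTT, 0.00005% Triton X-100. Reaction started with 2 uM Z-FR-AMC; AMC fluorescence increase over 60 s gives rate.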
Potency is the fitted concentration of half-maximal effect; tags give direction and shape of the fitted curve.

SMILES | Potency | max response, negative = inhibition
O=C(COc1ccccc1Cl)Nc1nc(-c2cccs2)cs1 | inconclusive: 31.6 µM [inhibitor, single point] | –
COc1ccc2c(c1)CCc1sc(NC(=O)c3cccc(Br)c3)nc1-2 | inconclusive: 39.8 µM [inhibitor, single point] | –
O=C(Nc1cccc(S(=O)(=O)Nc2ccc(Cl)cc2)c1)c1ccc2c(c1)OCCO2 | inconclusive: 39.8 µM [inhibitor, single point] | –
COc1cc2c(cc1NC(=O)COC(=O)C(CCSC)NC(=O)c1ccccc1Cl)oc1ccccc12 (stereo not drawn) | active: 25.1 µM | –
Nc1nnc(COc2ccc(Br)cc2Br)s1 | inconclusive: 31.6 µM [inhibitor, single point] | –
CCOc1ccc(-c2nnc(SCC(=O)NCc3ccccc3Cl)o2)cc1 | inconclusive: 31.6 µM [inhibitor, single point] | –
COCc1cc(C)nc2c1C(=O)NC(c1ccc(C)cc1)N2Cc1ccccc1 (stereo not drawn) | – | inactive: 0.673%
CC#CCN(CC#CC)S(=O)(=O)c1ccc(S(=O)(=O)N2CCOCC2)cc1 | inconclusive: 39.8 µM [activator, single point] | –
O=S(=O)(c1ccc(F)cc1)N(CCO)CC(O)Cn1c2ccccc2c2ccccc21 (stereo not drawn) | inconclusive: 25.1 µM [activator, partial curve] | –
O=C(CCC(=O)OCC(=O)c1ccc(Br)cc1)Nc1ccc(Br)c2cccnc12 | inconclusive: 39.8 µM [inhibitor, single point] | –
Cc1ccccc1-n1c(C)cc(/C=C2/C(=N)N3C(c4ccccc4)=CSC3=NC2=O)c1C | active: 3.16 µM | –
CC1CCC/C(=C\Nc2ccc3c(c2)OCO3)C1=O (stereo not drawn) | inconclusive: 20 µM [inhibitor, single point] | –
COc1ccccc1N1CCN(C(=O)c2sc3nc(-c4ccc(F)cc4)cn3c2C)CC1 | inconclusive: 12.6 µM [activator, partial curve] | –
CN1C(=O)C(/C(N)=N/NC(=O)c2ccccc2)C2CC1(C)Oc1ccccc12 (stereo not drawn) | – | inactive: -1.73%
Cc1ccccc1CN1CCN(CC(=O)NCc2ccccc2)C1=O | inconclusive: 1.58 µM [inhibitor, single point] | –
COc1ccc(CCN2CC(C#N)=C3c4cc(OC)c(OC)cc4CCN3C2)cc1OC | inconclusive: 39.8 µM [activator, single point] | –
O=C(/C=C/c1ccco1)NC(=S)Nc1ccc(N2CCCC2)cc1 | inconclusive: 39.8 µM [inhibitor, single point] | –
O=c1c2ccccc2nc(SCc2cccc(F)c2)n1-c1cccc(S(=O)(=O)N2CCCC2)c1 | inconclusive: 31.6 µM [inhibitor, single point] | –
CCCOc1cccc(C(=O)N(Cc2sccc2C)C2CCS(=O)(=O)C2)c1 (stereo not drawn) | – | inactive: 4.79%
Clc1ccc(C(c2ccc(Cl)cc2)C(Cl)Cl)cc1 | – | inactive: -23.1%
COc1ccc(-c2nnn(CC(=O)N(Cc3cccs3)C(C)C(=O)NCCC(C)C)n2)cc1OC (stereo not drawn) | inconclusive: 39.8 µM [activator, single point] | –
N[C@@H](Cc1ccnnc1)C(=O)O | – | inactive: 8.58%

SMILES | Potency | max response, negative = inhibition
CCC(=O)Nc1ccc2nc(SCCOc3ccc(C)cc3OC)sc2c1 | inconclusive: 39.8 µM [activator, single point] | –
Cc1ccc(S(=O)(=O)N2CCN(C3CC(=O)N(CCc4ccccc4)C3=O)CC2)cc1C (stereo not drawn) | inconclusive: 39.8 µM [activator, single point] | –
CCN(CC)S(=O)(=O)c1ccc(C(=O)NCCSc2c(-c3ccc(F)cc3)[nH]c3ccccc23)cc1 | – | inactive: -62.1%
CCOC(=O)c1c(/N=C/C2=C(O)CC(C)(C)CC2=O)sc(C)c1C | inconclusive: 39.8 µM [activator, single point] | –
COc1cc(C(=O)N2CCN(c3ccc(C)cc3C)CC2)cc(OC)c1OC | inconclusive: 31.6 µM [activator, single point] | –
CC1CCC(NC(=O)c2ccc(CS(=O)(=O)c3ccc(Cl)cc3)o2)CC1 (stereo not drawn) | – | inactive: 13.3%
O=C(c1ccc2c(c1)OCO2)c1cn(Cc2ccc(Cl)cc2)c2ccc(F)cc2c1=O | active: 25.1 µM | –
COc1cccc2c(C)cc3nnc(SCC(=O)Nc4ccc(C)cc4)n3c12 | – | inactive: -10.2%
O=C(Cn1ncc2c1-c1ccccc1OC2)N1CCN(c2ccccc2)CC1 | – | inactive: -6.63%
COc1ccc(C)cc1N(C(=O)c1ccc(F)cc1)c1nc2ccccc2s1 | inconclusive: 39.8 µM [inhibitor, single point] | –
CCCC(=O)Nc1ccc2oc(-c3ccc(OC)c(Br)c3)nc2c1 | inconclusive: 25.1 µM [activator, partial curve] | –
Cc1cc(=O)oc2cc(OCC(=O)OCC(=O)Nc3ccc4ccccc4c3)ccc12 | inconclusive: 39.8 µM [inhibitor, single point] | –
CCC(C)NC(=O)COC(=O)c1oc2ccccc2c1CSc1ccc(Cl)cc1 (stereo not drawn) | active: 25.1 µM | –
Cc1cccc(N(C)S(=O)(=O)c2nnc(NC(=O)c3cccs3)s2)c1 | – | inactive: -0.113%
Cc1ccc(C(=O)c2sc(Nc3ccccc3)c(S(=O)(=O)c3ccccc3)c2N)c(C)c1 | active: 7.94 µM | –
Cc1nc2c(-c3ccccc3)c(C)nn2c(C)c1CCC(=O)NC(C)CCc1ccco1 (stereo not drawn) | inconclusive: 39.8 µM [activator, single point] | –
CC(C)CCNC(=O)[C@H](CC(C)C)NC(=O)[C@H]1O[C@@H]1C(=O)O | active: 0.1 µM | –
CCCCNC(=O)C(CC)Sc1nc2ccccc2c(=O)n1Cc1ccco1 (stereo not drawn) | – | inactive: -9.09%
COC(=O)CCC(=O)N1CCc2cc(S(=O)(=O)N3CCN(c4ccccc4Cl)CC3)ccc21 | inconclusive: 10 µM [activator, partial curve] | –
Cc1ccc2c(c1)nnn2C1CCN(S(=O)(=O)c2ccc(C(=O)N(C)C)cc2)CC1 | inconclusive: 39.8 µM [activator, single point] | –
COc1ccccc1CNC(=O)c1ccc2[nH]c(C)c(C)c2c1 | – | inactive: -13.2%
